{
  "source": "PubChem BioAssay AID1030",
  "about": "(National Center for Advancing Translational Sciences (NCATS), 2008)",
  "note": "“And” between values parts separate entries of the source, which are not always exact repeats. Identical values can stand only once. Among all 220,000 compounds or so, about 16,000 (7.3%) were called active. This list was built around the results that the source calls inconclusive (neither active nor inactive); the mix of calls is not that of the screen. Calls follow the shape of the dose curve; as a rule, active = well fitted inhibition curve with a large enough effect (not every such curve was filed as active); inconclusive = small, poorly fitted or top-dose-only effect, or another doubt; inactive = no such curve, though single readings can be large or run the other way. Where the call is inconclusive, the potency comes from a doubtful curve fit. Potency is read from the fitted curve at half-maximal effect; tags tell the direction and shape of the fitted curve.",
  "data": [
    {"target": "Aldehyde dehydrogenase 1A1 (Homo sapiens) (UniProt P00352)", "sequence (P00352 whole entry, looked up)": "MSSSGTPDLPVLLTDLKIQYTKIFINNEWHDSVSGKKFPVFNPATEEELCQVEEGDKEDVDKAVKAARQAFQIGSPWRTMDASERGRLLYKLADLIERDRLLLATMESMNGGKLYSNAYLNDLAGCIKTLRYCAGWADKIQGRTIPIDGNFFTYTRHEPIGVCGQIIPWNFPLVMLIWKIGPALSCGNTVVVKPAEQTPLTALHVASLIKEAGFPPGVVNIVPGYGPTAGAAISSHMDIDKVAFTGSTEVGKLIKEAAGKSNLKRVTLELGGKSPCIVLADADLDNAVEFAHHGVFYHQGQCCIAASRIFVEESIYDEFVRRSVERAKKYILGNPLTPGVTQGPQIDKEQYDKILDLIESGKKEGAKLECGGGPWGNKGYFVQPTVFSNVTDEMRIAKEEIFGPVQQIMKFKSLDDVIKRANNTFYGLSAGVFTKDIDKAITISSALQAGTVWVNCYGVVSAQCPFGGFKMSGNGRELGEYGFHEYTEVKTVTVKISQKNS", "assay": "qHTS Assay for Inhibitors of Aldehyde Dehydrogenase 1 (ALDH1A1);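 as to activity, negative = inhibition: plate controls were no enzyme wells and a reference inhibitor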", "conditions": "Purified ALDH1A1, NADH fluorescence, propionaldehyde substrate; series mostly up to 75.3 µM; activity, negative = inhibition: at the top concentration", "values": [
      {"smiles": "CNC(=S)N(Cc1cccs1)Cc1cc2ccc(OC)cc2[nH]c1=O", "Potency": "inconclusive: 8.91 µM [inhibitor, full curve]"},
      {"smiles": "Cc1cc2nc(-c3ccc(SCC(=O)Nc4ccc(S(=O)(=O)N5CCCC5)cc4)nc3)[nH]c2cc1C", "Potency": "inconclusive: 25.1 µM [inhibitor, partial curve]"},
      {"smiles": "Cn1c(=O)c2[nH]c(-c3ccccc3Cl)c(O)c2n(C)c1=O", "activity, negative = inhibition": "inactive: -8.3%"},
      {"smiles": "Oc1sc(C=Nc2ccccc2)c2ccccc12", "Potency": "active: 22.4 µM"},
      {"smiles": "O=C(NC1CCCc2ccccc21)c1cn2ccccc2n1", "note": "(centres undefined)", "Potency": "inconclusive: 31.6 µM [inhibitor, single point]"},
      {"smiles": "O=C(NC(=S)Nc1cc(C(F)(F)F)ccc1N1CCOCC1)c1sc2ccccc2c1Cl", "Potency": "active: 7.94 µM"},
      {"smiles": "Oc1ccc(/C=N/N=C/c2ccc(O)cc2)cc1", "Potency": "inconclusive: 39.8 µM [inhibitor, single point]"},
      {"smiles": "CCOC(=O)c1nn(-c2ccccc2)c(C(=O)OCC)c1N", "Potency": "inconclusive: 28.2 µM [inhibitor, partial curve]"},
      {"smiles": "O=C(O)CNC(=O)CC1S/C(=N/N=C/c2ccccc2O)NC1=O", "note": "(centres undefined)", "activity, negative = inhibition": "inactive: 2.01%"},
      {"smiles": "COc1ccc(OC)c(-n2c(SC)nnc2-c2c[nH]c3ccccc23)c1", "Potency": "inconclusive: 39.8 µM [inhibitor, single point]"},
      {"smiles": "CCOc1ccccc1N1C(=O)CC(N(O)c2ccccc2)C1=O", "note": "(centres undefined)", "Potency": "inconclusive: 25.1 µM [inhibitor, single point]"},
      {"smiles": "CCn1c(CNc2ccc(F)cc2)nnc1SCC(=O)OC1CCCCC1", "Potency": "inconclusive: 15.8 µM [inhibitor, partial curve]"},
      {"smiles": "O=C(Nc1ccc(-c2cn3c(n2)SCC3)cc1)c1ccc2c(c1)OCO2", "Potency": "inconclusive: 28.2 µM [inhibitor, partial curve]"},
      {"smiles": "CCOC(=O)C1(C)NC(c2ccco2)C2C(=O)N(c3ccccc3)C(=O)C21", "note": "(centres undefined)", "activity, negative = inhibition": "inactive: 4.72%"},
      {"smiles": "CCOc1ccc(NC(=O)CSc2nnc(Cc3cccn3C)n2-c2ccc(OC)cc2)cc1", "Potency": "active: 3.98 µM"},
      {"smiles": "O=C(O)CCc1ccc(S(=O)(=O)NCCc2ccccc2)cc1", "Potency": "active: 1.78 µM"},
      {"smiles": "CCN(CC)CCCN(Cc1cc2cc3c(cc2[nH]c1=O)OCO3)C(=S)Nc1ccccc1OC", "Potency": "inconclusive: 39.8 µM [inhibitor, single point]"},
      {"smiles": "Cc1ccc(OCC(=O)NC(=S)Nc2cccc(NC(=O)c3ccccc3Cl)c2)cc1", "Potency": "active: 12.6 µM"},
      {"smiles": "Cc1c(N2C(=O)CSC2=S)c(=O)n(-c2ccccc2)n1C", "activity, negative = inhibition": "inactive: -3.53%"},
      {"smiles": "Cc1ccc2c(c1)CCCN2C(=O)c1ccco1", "activity, negative = inhibition": "inactive: -8%"},
      {"smiles": "CCCNC(=O)c1ccc2c(=O)n(Cc3ccco3)c(=S)[nH]c2c1", "Potency": "active: 7.08 µM"},
      {"smiles": "CC(C)(C)c1ccc(/C=C/C(=O)Nc2ccc3c(c2)OCCO3)cc1", "activity, negative = inhibition": "inactive: -3.02%"},
      {"smiles": "N#CC1(Cc2ccccc2)c2ccccc2C=CN1C(=O)c1ccccc1", "note": "(centres undefined)", "Potency": "inconclusive: 31.6 µM [inhibitor, single point]"},
      {"smiles": "COc1ccc(C)cc1-n1nnnc1SCC(=O)NC(=O)NCc1ccco1", "Potency": "active: 12.6 µM"},
      {"smiles": "CCCOc1ccccc1-c1nc(SCCC(=O)O)n[nH]1", "Potency": "inconclusive: 39.8 µM [inhibitor, single point]"},
      {"smiles": "O=C(CCn1ccc2ccccc21)Nc1ccc(N2CCOCC2)cc1", "Potency": "inconclusive: 39.8 µM [inhibitor, single point]"},
      {"smiles": "CC(C)Nc1ncnc2c1cnn2-c1ccccc1", "Potency": "inconclusive: 28.2 µM [inhibitor, partial curve]"},
      {"smiles": "CC1(C)CC(=O)C2=C(C1)OC1=C(C(=O)CC(C)(C)C1)C2c1ccc(O)c([N+](=O)[O-])c1", "activity, negative = inhibition": "inactive: -6.53%"},
      {"smiles": "Cc1ccc2nc(C3CCN(CC(=O)Nc4ccc5c(c4)OCCO5)CC3)[nH]c2c1", "Potency": "active: 22.4 µM"},
      {"smiles": "CC1(C)NC(=O)N(CCOCCOc2cccc(Oc3ccccc3)c2)C1=O", "activity, negative = inhibition": "inactive: -8.8%"},
      {"smiles": "CCOC(=O)C(=CNNc1ccsc1C(=O)OC)C(=O)OCC", "Potency": "inconclusive: 39.8 µM [inhibitor, single point]"},
      {"smiles": "CNC(=O)[C@H]1O[C@@H](n2cnc3c(N)ncnc32)[C@H](O)[C@@H]1O", "activity, negative = inhibition": "inactive: -0.474%"},
      {"smiles": "O=C(Nc1ccc2oc(-c3ccccc3F)nc2c1)c1ccco1", "Potency": "inconclusive: 39.8 µM [inhibitor, single point]"},
      {"smiles": "CC(C)(C)S(=O)(=O)c1cnc2c(-c3ccsc3)cnn2c1N", "Potency": "inconclusive: 35.5 µM [inhibitor, single point]"},
      {"smiles": "CC(C)Nc1oc(-c2ccccc2)nc1-c1cccc2ccccc12", "activity, negative = inhibition": "inactive: 1.3%"},
      {"smiles": "Cc1ccc(/C=N/Nc2nnc(Cc3ccccc3)c(=O)[nH]2)o1", "activity, negative = inhibition": "inactive: 16.9%"},
      {"smiles": "O=[N+]([O-])c1ccc(N/N=C2\\CC3CC=CC23)c([N+](=O)[O-])c1", "note": "(centres undefined)", "Potency": "inconclusive: 6.31 µM [inhibitor, full curve]"},
      {"smiles": "Cc1ccc2occ(/C=N/O)c(=O)c2c1", "Potency": "inconclusive: 39.8 µM [inhibitor, single point]"},
      {"smiles": "Cn1c(=O)c(=O)n(C)c2cc(S(=O)(=O)CCC(=O)N3CCOCC3)ccc21", "Potency": "inconclusive: 25.1 µM [inhibitor, single point]"},
      {"smiles": "COC(=O)c1c(NC(=O)CCCC(=O)O)sc2c1CCC2", "Potency": "inconclusive: 39.8 µM [inhibitor, single point]"},
      {"smiles": "Cc1nn(-c2ccccc2)c(N)c1N=Nc1ccc(Cl)cc1", "activity, negative = inhibition": "inactive: -1.48%"},
      {"smiles": "OCCCNC(=S)NC1CCCC1", "activity, negative = inhibition": "inactive: 0.0315%"},
      {"smiles": "Cc1cc(C(F)(F)F)nc(CCNCc2c(C(=O)N3CCCC3)nc3ccccn23)n1", "activity, negative = inhibition": "inactive: -2.12%"},
      {"smiles": "Cc1ccccc1C(=O)NNC(=O)C(=O)N1CCCCC1", "activity, negative = inhibition": "inactive: 6.02%"},
      {"smiles": "COc1ccc(CN(CCN(C)C)Cc2ccccc2)c(OC)c1", "Potency": "inconclusive: 25.1 µM [inhibitor, partial curve]"},
      {"smiles": "CCS(=O)(=O)Nc1cccc(C2=NN(S(=O)(=O)c3ccc(F)cc3)C(c3cccs3)C2)c1", "note": "(centres undefined)", "Potency": "inconclusive: 20 µM [inhibitor, partial curve]"},
      {"smiles": "ONc1cccnc1-n1nc(C(F)(F)F)cc1C(F)(F)F", "Potency": "inconclusive: 39.8 µM [inhibitor, single point]"},
      {"smiles": "CCCCN(C(=O)/C=C/c1ccco1)c1c(N)n(Cc2ccccc2)c(=O)[nH]c1=O", "activity, negative = inhibition": "inactive: 5.83%"},
      {"smiles": "CN(C)c1ncc2nc(-c3ccccc3)c(=O)n(C[C@H]3CCCO3)c2n1", "Potency": "inconclusive: 22.4 µM [inhibitor, partial curve]"},
      {"smiles": "CC1CCN(C(=S)NCCc2ccccc2)CC1", "activity, negative = inhibition": "inactive: -9.17%"},
      {"smiles": "CCOC(=O)c1cc(C)sc1N1C(=O)C2C3C=CC(C3)C2C1=O", "note": "(centres undefined)", "activity, negative = inhibition": "inactive: 3.9%"},
      {"smiles": "CC(C)c1ccc(/C=C2\\C(=O)N(CCN3CCOCC3)C(=S)N2C)cc1", "Potency": "inconclusive: 15.8 µM [inhibitor, partial curve]"},
      {"smiles": "O=C(COC(=O)c1ccc(NS(=O)(=O)c2cccs2)cc1O)NCc1ccccc1", "Potency": "inconclusive: 22.4 µM [inhibitor, partial curve]"},
      {"smiles": "COc1ccc(C2CC(c3ccccc3)n3nc(NC(=O)c4cccs4)nc3N2)cc1", "note": "(centres undefined)", "Potency": "inconclusive: 39.8 µM [inhibitor, single point]"},
      {"smiles": "Cc1ccc(NS(=O)(=O)c2cccc(C(=O)NCC3(N(C)C)CCCCC3)c2)cc1", "activity, negative = inhibition": "inactive: 7.48%"},
      {"smiles": "COC(=O)c1c(C)oc(C)c1S(=O)(=O)N1CCOCC1", "activity, negative = inhibition": "inactive: 3.74%"},
      {"smiles": "CCc1ccc(C(=O)/C=C/c2ccc([N+](=O)[O-])o2)cc1", "Potency": "active: 3.55 µM"},
      {"smiles": "O=C(Oc1cccc(NC(=O)c2ccco2)c1)c1cccc(S(=O)(=O)N2CCCCC2)c1", "activity, negative = inhibition": "inactive: -4.5%"},
      {"smiles": "CC(C)(C)Nc1nc(N2CCCC2)nc(N2CCCC2)n1", "Potency": "active: 0.501 µM"},
      {"smiles": "Cc1ccc(NC(=O)c2cn(CCC#N)nc2-c2cccs2)c([N+](=O)[O-])c1", "Potency": "inconclusive: 3.16 µM [inhibitor, partial curve, poor fit]"},
      {"smiles": "O=C(Nc1ccccc1)c1ccc(NCC2CCCO2)c(S(=O)(=O)N2CCOCC2)c1", "note": "(centres undefined)", "Potency": "inconclusive: 25.1 µM [inhibitor, partial curve]"},
      {"smiles": "COc1ccc(/C=C/C(=O)Nc2ccc3nc4n(c(=O)c3c2)CCCC4)cc1", "Potency": "inconclusive: 35.5 µM [inhibitor, single point]"},
      {"smiles": "CCCOc1ccc(/C=C2\\SC(=S)N(CC3CCCO3)C2=O)cc1", "note": "(centres undefined)", "Potency": "active: 6.31 µM"},
      {"smiles": "O=C1CC(CC(=O)N/N=C/c2ccccc2[N+](=O)[O-])=NN1", "Potency": "inconclusive: 39.8 µM [inhibitor, single point]"},
      {"smiles": "COc1ccc(NC(=O)C(NCC(C)C)c2ccccc2)cc1Cl", "note": "(centres undefined)", "Potency": "active: 1.41 µM"},
      {"smiles": "COc1ccc(CNc2ncnc3ccc(-c4ccc(C(=O)N(C)C)cc4)cc23)c(OC)c1", "Potency": "inconclusive: 39.8 µM [inhibitor, single point]"},
      {"smiles": "Cc1cc(NC(=O)CN2CCN(Cc3ccccc3)CC2)nc2c1c(=O)oc1ccccc12", "Potency": "active: 3.55 µM"},
      {"smiles": "CC(C)(C)c1ccccc1OCCCCN1CCCC1", "Potency": "inconclusive: 39.8 µM [inhibitor, single point]"},
      {"smiles": "CCC(C)(CC(=O)N(C)CCC#N)c1ccccc1", "note": "(centres undefined)", "Potency": "inconclusive: 39.8 µM [inhibitor, single point]"},
      {"smiles": "CO[C@H]1/C=C/O[C@@]2(C)Oc3c(C)c(O)c4c(O)c(c(/C=N/N5CCN(C)CC5)c(O)c4c3C2=O)NC(=O)/C(C)=C\\C=C\\[C@H](C)[C@H](O)[C@@H](C)[C@@H](O)[C@@H](C)[C@H](OC(C)=O)[C@@H]1C", "Potency": "inactive and inconclusive: 39.8 µM [inhibitor, single point]"},
      {"smiles": "CN(Cc1ccco1)C(=O)Cn1nc(-c2ccc(Cl)cc2)ccc1=O", "activity, negative = inhibition": "inactive: 1.19%"},
      {"smiles": "CCOC(=O)C1(Cc2cccc(F)c2)CCN(Cc2ccon2)CC1", "activity, negative = inhibition": "inactive: -4.07%"},
      {"smiles": "O=C(O)c1ccc(/C=C2\\SC(=Nc3ccccc3)N(c3ccccc3)C2=O)cc1", "Potency": "active: 15.8 µM"},
      {"smiles": "N#CC1=C(N)Oc2n[nH]c(-c3cccs3)c2C1c1ccncc1", "note": "(centres undefined)", "Potency": "inconclusive: 10 µM [inhibitor, partial curve]"}
    ]}
  ]
}
